{"source": "the supplement of paper PMC8728848", "binders": {"B1": {"name": "StdA (Salmonella typhimurium), Q8Z3Z0 (protein)", "chain": "MAAAGMMYGASVFAADTTPTAGPFGSGKILFTGTITNSPCDIAPGDDAITVPFGQISYRKLNTANATTDSKPFTIHLQNCAFDPNETTIAGSAGKMSKVTVSFSGTADTSGKAYVSTGSAQHVGVQLLKGDNTSLITPNTPMPDGDAQQLQAGNNELNFFARLIALTDAATPGDVNASVTYTLKYL"}}, "assay_in_all_cases": "glycan array binding signal (z-score within array); higher = stronger binding", "conditions_in_all_cases": "glycan notation: IUPAC condensed, linker removed", "key": {"[1]": {"target": "GlcNAc(a1-4)Gal(b1-4)GlcNAc(b1-3)Gal(b1-4)GlcNAc(b1-3)Gal(b1-4)GlcNAc", "procedure,_shortened": "(§1)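 Glycan array data were curated from 3228 arrays in the Consortium for Functional Glycomics database and kept only where the protein sequence was available. Glycan names were converted to IUPAC-condensed notation, and columns mapping to the same glycan were averaged. The binding signal is a within-array Z-score, averaged across arrays of the same protein sequence at different concentrations or buffers and across linkers. Negative Z-scores can be read as non-binding.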"}, "[2]": {"target": "GlcNAc(a1-4)Gal(b1-4)GlcNAc(b1-3)Gal(b1-4)[Fuc(a1-3)]GlcNAc(b1-3)Gal(b1-4)[Fuc(a1-3)]GlcNAc", "procedure,_shortened": "as §1"}, "[3]": {"target": "GlcNAc(a1-6)Gal(b1-4)GlcNAc", "procedure,_shortened": "as §1"}, "[4]": {"target": "GlcNAc(b1-2)Gal(b1-3)GalNAc", "procedure,_shortened": "as §1"}, "[5]": {"target": "GlcNAc(b1-2)Man(a1-3)[GlcNAc(b1-2)Man(a1-6)]Man(b1-4)GlcNAc(b1-4)GlcNAc", "procedure,_shortened": "as §1"}, "[6]": {"target": "GlcNAc(b1-2)Man(a1-3)[GlcNAc(b1-2)Man(a1-6)]Man(b1-4)GlcNAc(b1-4)[Fuc(a1-6)]GlcNAc", "procedure,_shortened": "as §1"}, "GlcNAc(b1-3)Gal": {"target": "GlcNAc(b1-3)Gal", "procedure,_shortened": "as §1"}, "[7]": {"target": "GlcNAc(b1-3)Gal(b1-3)GalNAc", "procedure,_shortened": "as §1"}, "GlcNAc(b1-3)Gal(b1-4)Glc": {"target": "GlcNAc(b1-3)Gal(b1-4)Glc", "procedure,_shortened": "as §1"}, "[8]": {"target": "GlcNAc(b1-3)Gal(b1-4)GlcNAc", "procedure,_shortened": "as §1"}, "[9]": {"target": "GlcNAc(b1-3)Gal(b1-4)GlcNAc(b1-3)Gal(b1-4)GlcNAc", "procedure,_shortened": "as §1"}, "GlcNAc(b1-3)GalNAc": {"target": "GlcNAc(b1-3)GalNAc", "procedure,_shortened": "as §1"}, "GlcNAc(b1-3)Man": {"target": "GlcNAc(b1-3)Man", "procedure,_shortened": "as §1"}, "[10]": {"target": "GlcNAc(b1-3)[GlcNAc(b1-4)][GlcNAc(b1-6)]GlcNAc", "procedure,_shortened": "as §1"}, "[11]": {"target": "GlcNAc(b1-3)[GlcNAc(b1-6)]Gal(b1-4)GlcNAc", "procedure,_shortened": "as §1"}, "[12]": {"target": "GlcNAc(b1-3)[GlcNAc(b1-6)]GalNAc", "procedure,_shortened": "as §1"}, "[13]": {"target": "GlcNAc(b1-4)Gal(b1-4)GlcNAc", "procedure,_shortened": "as §1"}, "GlcNAc(b1-4)GlcNAc": {"target": "GlcNAc(b1-4)GlcNAc", "procedure,_shortened": "as §1"}, "[14]": {"target": "GlcNAc(b1-4)GlcNAc(b1-4)GlcNAc", "procedure,_shortened": "as §1"}, "[15]": {"target": "GlcNAc(b1-4)GlcNAc(b1-4)GlcNAc(b1-4)GlcNAc(b1-4)GlcNAc", "procedure,_shortened": "as §1"}, "[16]": {"target": "GlcNAc(b1-4)GlcNAc(b1-4)GlcNAc(b1-4)GlcNAc(b1-4)GlcNAc(b1-4)GlcNAc", "procedure,_shortened": "as §1"}, "[17]": {"target": "GlcNAc(b1-4)[GlcNAc(b1-6)]GalNAc", "procedure,_shortened": "as §1"}, "[18]": {"target": "GlcNAc(b1-6)Gal(b1-4)GlcNAc", "procedure,_shortened": "as §1"}, "GlcNAc(b1-6)GalNAc": {"target": "GlcNAc(b1-6)GalNAc", "procedure,_shortened": "as §1"}, "GlcNAc3Prop(b1-4)GlcNAc": {"target": "GlcNAc3Prop(b1-4)GlcNAc", "procedure,_shortened": "as §1"}, "[19]": {"target": "GlcNAc6S(b1-3)Gal(b1-4)GlcNAc", "procedure,_shortened": "as §1"}, "Kdn(a2-3)Gal(b1-3)GalNAc": {"target": "Kdn(a2-3)Gal(b1-3)GalNAc", "procedure,_shortened": "as §1"}, "Kdn(a2-3)Gal(b1-3)GlcNAc": {"target": "Kdn(a2-3)Gal(b1-3)GlcNAc", "procedure,_shortened": "as §1"}, "Kdn(a2-3)Gal(b1-4)Glc": {"target": "Kdn(a2-3)Gal(b1-4)Glc", "procedure,_shortened": "as §1"}, "Kdn(a2-3)Gal(b1-4)GlcNAc": {"target": "Kdn(a2-3)Gal(b1-4)GlcNAc", "procedure,_shortened": "as §1"}, "[20]": {"target": "Kdn(a2-3)Gal(b1-4)[Fuc(a1-3)]GlcNAc", "procedure,_shortened": "as §1"}, "Kdn(a2-6)Gal(b1-4)GlcNAc": {"target": "Kdn(a2-6)Gal(b1-4)GlcNAc", "procedure,_shortened": "as §1"}, "[21]": {"target": "Man(a1-2)Man(a1-2)Man(a1-3)Man", "procedure,_shortened": "as §1"}, "[22]": {"target": "Man(a1-2)Man(a1-2)Man(a1-6)[Man(a1-3)]Man", "procedure,_shortened": "as §1"}, "Man(a1-2)Man(a1-3)Man": {"target": "Man(a1-2)Man(a1-3)Man", "procedure,_shortened": "as §1"}, "[23]": {"target": "Man(a1-2)Man(a1-3)[Man(a1-2)Man(a1-6)]Man", "procedure,_shortened": "as §1"}, "[24]": {"target": "Man(a1-2)Man(a1-3)[Man(a1-2)Man(a1-6)]Man(a1-6)[Man(a1-2)Man(a1-2)Man(a1-3)]Man", "procedure,_shortened": "as §1"}, "[25]": {"target": "Man(a1-2)Man(a1-3)[Man(a1-2)Man(a1-6)]Man(a1-6)[Man(a1-2)Man(a1-2)Man(a1-3)]Man(b1-4)GlcNAc(b1-4)GlcNAc", "procedure,_shortened": "as §1"}, "[26]": {"target": "Man(a1-2)Man(a1-3)[Man(a1-6)]Man(a1-6)[Man(a1-2)Man(a1-3)]Man(b1-4)GlcNAc(b1-4)GlcNAc", "procedure,_shortened": "as §1"}, "[27]": {"target": "Man(a1-2)Man(a1-6)[Man(a1-3)]Man(a1-6)[Man(a1-2)Man(a1-2)Man(a1-3)]Man", "procedure,_shortened": "as §1"}, "[28]": {"target": "Man(a1-2)Man(a1-6)[Man(a1-3)]Man(a1-6)[Man(a1-2)Man(a1-2)Man(a1-3)]Man(b1-4)GlcNAc(b1-4)GlcNAc", "procedure,_shortened": "as §1"}, "Man(a1-3)[Man(a1-6)]Man": {"target": "Man(a1-3)[Man(a1-6)]Man", "procedure,_shortened": "as §1"}, "[29]": {"target": "Man(a1-3)[Man(a1-6)]Man(a1-6)[Man(a1-2)Man(a1-3)]Man(b1-4)GlcNAc(b1-4)GlcNAc", "procedure,_shortened": "as §1"}, "[30]": {"target": "Man(a1-3)[Man(a1-6)]Man(a1-6)[Man(a1-3)]Man", "procedure,_shortened": "as §1"}}, "note": "The list shows a part of the results.", "data": [{"binder": "B1", "values": [{"measurement": "glycan array binding signal (z-score)", "setting": "[1]", "value": 0.545}, {"measurement": "glycan array binding signal (z-score)", "setting": "[2]", "value": 0.242}, {"measurement": "glycan array binding signal (z-score)", "setting": "[3]", "value": 0.055}, {"measurement": "glycan array binding signal (z-score)", "setting": "[4]", "value": -0.638}, {"measurement": "glycan array binding signal (z-score)", "setting": "[5]", "value": 0.112}, {"measurement": "glycan array binding signal (z-score)", "setting": "[6]", "value": 0.848}, {"measurement": "glycan array binding signal (z-score)", "setting": "GlcNAc(b1-3)Gal", "value": -1.51}, {"measurement": "glycan array binding signal (z-score)", "setting": "[7]", "value": 2.07}, {"measurement": "glycan array binding signal (z-score)", "setting": "GlcNAc(b1-3)Gal(b1-4)Glc", "value": 0.153}, {"measurement": "glycan array binding signal (z-score)", "setting": "[8]", "value": -0.077}, {"measurement": "glycan array binding signal (z-score)", "setting": "[9]", "value": -0.414}, {"measurement": "glycan array binding signal (z-score)", "setting": "GlcNAc(b1-3)GalNAc", "value": -0.854}, {"measurement": "glycan array binding signal (z-score)", "setting": "GlcNAc(b1-3)Man", "value": 0.206}, {"measurement": "glycan array binding signal (z-score)", "setting": "[10]", "value": -0.591}, {"measurement": "glycan array binding signal (z-score)", "setting": "[11]", "value": -0.265}, {"measurement": "glycan array binding signal (z-score)", "setting": "[12]", "value": 0.036}, {"measurement": "glycan array binding signal (z-score)", "setting": "[13]", "value": -0.524}, {"measurement": "glycan array binding signal (z-score)", "setting": "GlcNAc(b1-4)GlcNAc", "value": 0.148}, {"measurement": "glycan array binding signal (z-score)", "setting": "[14]", "value": 0.166}, {"measurement": "glycan array binding signal (z-score)", "setting": "[15]", "value": -0.249}, {"measurement": "glycan array binding signal (z-score)", "setting": "[16]", "value": -0.944}, {"measurement": "glycan array binding signal (z-score)", "setting": "[17]", "value": -0.958}, {"measurement": "glycan array binding signal (z-score)", "setting": "[18]", "value": 0.557}, {"measurement": "glycan array binding signal (z-score)", "setting": "GlcNAc(b1-6)GalNAc", "value": -0.631}, {"measurement": "glycan array binding signal (z-score)", "setting": "GlcNAc3Prop(b1-4)GlcNAc", "value": -0.424}, {"measurement": "glycan array binding signal (z-score)", "setting": "[19]", "value": 1.03}, {"measurement": "glycan array binding signal (z-score)", "setting": "Kdn(a2-3)Gal(b1-3)GalNAc", "value": 0.344}, {"measurement": "glycan array binding signal (z-score)", "setting": "Kdn(a2-3)Gal(b1-3)GlcNAc", "value": -0.107}, {"measurement": "glycan array binding signal (z-score)", "setting": "Kdn(a2-3)Gal(b1-4)Glc", "value": 0.211}, {"measurement": "glycan array binding signal (z-score)", "setting": "Kdn(a2-3)Gal(b1-4)GlcNAc", "value": 1.56}, {"measurement": "glycan array binding signal (z-score)", "setting": "[20]", "value": 0.403}, {"measurement": "glycan array binding signal (z-score)", "setting": "Kdn(a2-6)Gal(b1-4)GlcNAc", "value": -0.547}, {"measurement": "glycan array binding signal (z-score)", "setting": "[21]", "value": -0.737}, {"measurement": "glycan array binding signal (z-score)", "setting": "[22]", "value": -0.088}, {"measurement": "glycan array binding signal (z-score)", "setting": "Man(a1-2)Man(a1-3)Man", "value": -0.691}, {"measurement": "glycan array binding signal (z-score)", "setting": "[23]", "value": -0.749}, {"measurement": "glycan array binding signal (z-score)", "setting": "[24]", "value": -0.236}, {"measurement": "glycan array binding signal (z-score)", "setting": "[25]", "value": -0.501}, {"measurement": "glycan array binding signal (z-score)", "setting": "[26]", "value": 1.34}, {"measurement": "glycan array binding signal (z-score)", "setting": "[27]", "value": 1.21}, {"measurement": "glycan array binding signal (z-score)", "setting": "[28]", "value": -0.273}, {"measurement": "glycan array binding signal (z-score)", "setting": "Man(a1-3)[Man(a1-6)]Man", "value": -0.521}, {"measurement": "glycan array binding signal (z-score)", "setting": "[29]", "value": -0.109}, {"measurement": "glycan array binding signal (z-score)", "setting": "[30]", "value": -0.44}]}]}
